# Data: PubChem BioAssay AID504333 (National Center for Advancing Translational Sciences (NCATS), 2011)
# About 16,000 (4.4%) of roughly 360,000 compounds were called active. Inconclusive results, whose numbers are uncertain, are shown with a selection of clear calls. Calls follow the shape of the dose curve; as a rule, active = well fitted inhibition curve with a large enough effect; inconclusive = small, poorly fitted or top-dose-only effect; inactive = no such curve, though single readings can be large or run the other way. Potencies beside an inconclusive call are fits to weak or partial responses and may not hold up.
# Biological target: Bromodomain adjacent to zinc finger domain protein 2B (Homo sapiens) (UniProt Q9UIF8)
# Experiment: qHTS Assay for Inhibitors of BAZ2B; also: nearly all actives have a fitted effect of over 60% in size
# Settings: AlphaScreen BAZ2B-H3K14Ac peptide displacement; activity change, negative = inhibition: at 114 µM (top of the series) unless noted
# Method in brief: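 Multi-concentration screen (max 110 uM) measuring displacement of acetylated histone H3 peptide from BAZ2B by AlphaScreen, using 50 nM protein, 50 nM peptide and 10 ug/mL streptavidin donor plus Ni-chelate acceptor beads.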
# % is scaled to controls: 0 for no effect and ±100 for the full control effect; potency is read from the fitted curve at half-maximal effect; tags tell the direction and shape of the fitted curve.
# Chain of UniProt Q9UIF8 (Q9UIF8 whole entry, looked up, the tested form may be a part): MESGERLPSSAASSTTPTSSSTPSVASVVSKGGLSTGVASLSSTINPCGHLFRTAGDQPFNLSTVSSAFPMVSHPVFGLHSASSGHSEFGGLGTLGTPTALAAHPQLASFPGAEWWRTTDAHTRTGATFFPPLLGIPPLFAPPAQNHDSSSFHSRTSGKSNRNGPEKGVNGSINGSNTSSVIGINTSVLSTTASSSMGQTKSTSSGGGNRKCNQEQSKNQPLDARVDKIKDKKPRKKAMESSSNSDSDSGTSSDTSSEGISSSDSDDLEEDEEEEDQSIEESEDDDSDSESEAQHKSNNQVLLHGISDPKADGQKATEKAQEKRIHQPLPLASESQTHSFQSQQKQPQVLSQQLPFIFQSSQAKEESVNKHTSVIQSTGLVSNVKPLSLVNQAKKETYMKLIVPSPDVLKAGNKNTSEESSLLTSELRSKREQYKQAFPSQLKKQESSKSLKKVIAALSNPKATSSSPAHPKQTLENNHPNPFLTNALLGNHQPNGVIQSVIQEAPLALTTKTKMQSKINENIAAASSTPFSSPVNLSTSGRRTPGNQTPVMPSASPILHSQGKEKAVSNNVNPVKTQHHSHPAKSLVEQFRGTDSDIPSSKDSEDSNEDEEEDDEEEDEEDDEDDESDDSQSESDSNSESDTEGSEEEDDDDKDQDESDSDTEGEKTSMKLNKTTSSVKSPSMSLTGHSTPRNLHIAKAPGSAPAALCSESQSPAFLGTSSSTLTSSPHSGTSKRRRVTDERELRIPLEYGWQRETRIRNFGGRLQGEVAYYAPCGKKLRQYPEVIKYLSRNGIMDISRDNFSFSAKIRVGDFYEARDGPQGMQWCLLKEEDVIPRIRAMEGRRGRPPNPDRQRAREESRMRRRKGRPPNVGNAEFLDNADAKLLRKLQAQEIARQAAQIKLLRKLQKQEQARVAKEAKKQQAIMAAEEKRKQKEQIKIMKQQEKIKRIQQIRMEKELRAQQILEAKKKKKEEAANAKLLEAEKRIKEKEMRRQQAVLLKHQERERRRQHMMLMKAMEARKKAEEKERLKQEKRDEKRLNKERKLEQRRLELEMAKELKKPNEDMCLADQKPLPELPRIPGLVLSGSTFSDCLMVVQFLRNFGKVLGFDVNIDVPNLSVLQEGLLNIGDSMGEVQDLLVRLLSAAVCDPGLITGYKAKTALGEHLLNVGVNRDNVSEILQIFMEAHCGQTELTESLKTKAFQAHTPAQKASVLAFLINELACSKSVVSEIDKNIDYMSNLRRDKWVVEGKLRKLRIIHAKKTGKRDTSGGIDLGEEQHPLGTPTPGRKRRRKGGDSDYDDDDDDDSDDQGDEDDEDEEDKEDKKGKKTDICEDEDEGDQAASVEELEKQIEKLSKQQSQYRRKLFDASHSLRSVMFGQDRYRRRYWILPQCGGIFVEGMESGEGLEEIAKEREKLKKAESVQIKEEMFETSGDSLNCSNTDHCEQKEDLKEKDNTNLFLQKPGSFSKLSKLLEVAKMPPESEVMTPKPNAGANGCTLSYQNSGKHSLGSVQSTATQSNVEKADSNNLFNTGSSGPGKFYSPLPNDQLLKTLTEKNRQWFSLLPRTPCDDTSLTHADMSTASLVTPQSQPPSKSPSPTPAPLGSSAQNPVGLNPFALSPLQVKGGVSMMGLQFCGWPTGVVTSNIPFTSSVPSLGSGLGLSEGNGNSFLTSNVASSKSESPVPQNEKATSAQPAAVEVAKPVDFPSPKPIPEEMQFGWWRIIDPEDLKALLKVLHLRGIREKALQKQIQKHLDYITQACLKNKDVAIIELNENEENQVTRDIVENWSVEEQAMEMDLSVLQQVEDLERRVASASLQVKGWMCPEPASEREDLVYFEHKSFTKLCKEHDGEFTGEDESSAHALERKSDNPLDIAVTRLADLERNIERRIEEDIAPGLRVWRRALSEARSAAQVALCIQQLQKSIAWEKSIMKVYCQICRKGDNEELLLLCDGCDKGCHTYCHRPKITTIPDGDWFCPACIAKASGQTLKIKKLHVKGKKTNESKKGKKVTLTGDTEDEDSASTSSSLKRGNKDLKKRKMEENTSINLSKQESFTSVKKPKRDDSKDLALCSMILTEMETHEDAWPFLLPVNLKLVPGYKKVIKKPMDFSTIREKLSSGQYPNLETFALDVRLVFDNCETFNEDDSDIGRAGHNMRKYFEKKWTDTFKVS
Compound,"activity change, negative = inhibition",Potency
O=C(NCc1ccc2c(c1)CCN2C(=O)c1ccc(F)cc1)c1ccco1,inactive: -6.57%,–
CCc1ccccc1N(C)S(=O)(=O)c1ccc2[nH]cc(C(=O)N3CCc4ccccc43)c(=O)c2c1,inactive: -5.22%,–
CCN(CC)CCN(C(=O)c1ccc2c(c1)OCCO2)c1nc2cc3c(cc2s1)OCO3,inactive: -32.8%,–
COc1ccccc1C(=O)N/C(=C\c1cn(C)c2ccccc12)C(=O)N1CCCC1,–,"inconclusive: 56.2 µM [inhibitor, single point]"
CCc1cc2c(=O)c(-c3nc4ccccc4n3C)coc2c(CN2CCCCC2C)c1O (stereo not drawn),–,active: 44.7 µM
COc1ccc(CNCc2cc(C)c(OC)cc2C)c(OC)c1,–,active: 50.1 µM
CCOC(=O)c1ccc(N=Nc2c(C)[nH]n(-c3ccccc3)c2=O)cc1,–,"inconclusive: 1.41 µM [inhibitor, full curve]"
CCN(CC(=O)Nc1ccc(C)c(F)c1)CC(=O)NC(C)C,–,"inconclusive: 89.1 µM [inhibitor, single point]"
Cc1cccc(N=Nc2c(N)n[nH]c2-c2ccc(Cl)cc2)c1,–,"inconclusive: 39.8 µM [inhibitor, partial curve]"
O=C(CN1C(=O)C2(SCC(=O)N2c2ccccc2)c2ccccc21)NCc1ccccc1 (stereo not drawn),inactive: -9.73%,–
Cc1oc2c(O)c(O)ccc2c(=O)c1-c1cnn(-c2ccccc2)c1,–,"inconclusive: 50.1 µM [inhibitor, partial curve]"
Cc1cccc(N=Nc2cnc(N)s2)c1,–,"inconclusive: 44.7 µM [inhibitor, partial curve]"
CCOc1ccc(N(C(C)C(=O)N2CCCCCC2)S(C)(=O)=O)cc1 (stereo not drawn),–,"inconclusive: 89.1 µM [inhibitor, single point]"
Cc1ccc(C)c(N2CCN(CCCNC(=O)c3ccc4nc(N5CCCCC5)sc4c3)CC2)c1,–,"inconclusive: 20 µM [inhibitor, full curve]"
Cc1ccc(-n2c(C)cc(C(=O)CN3CCOCC3)c2C)cc1,–,"inconclusive: 79.4 µM [inhibitor, single point]"
O=C(/C=C/c1ccco1)NC(=S)Nc1ccccn1,–,active: 56.2 µM
O=S(=O)(Nc1cccc(-c2cn3c(n2)SCC3)c1)c1cccs1,–,"inconclusive: 70.8 µM [inhibitor, partial curve]"
O=C(O)c1ccccc1C(=O)Nc1ccc(-n2nccc2C(F)(F)F)cc1,inactive: -15.6%,–
CCOC(=O)CNC(=O)CSc1nnc(-c2ccccc2OC)n1CC,–,"inconclusive: 89.1 µM [inhibitor, single point]"
CCc1ccc(C(=O)CN(C#N)c2nc(C)cc(C)n2)cc1,–,"inconclusive: 79.4 µM [inhibitor, single point]"
Cc1ccccc1C(=O)N1CCN(c2ccc([N+](=O)[O-])c(NCc3ccco3)c2)CC1,–,"inconclusive: 79.4 µM [inhibitor, single point]"
Cc1ccc(C(=O)c2oc3ccccc3c2NC(=O)COc2ccccc2Cl)cc1,–,active: 50.1 µM

Compound,"activity change, negative = inhibition",Potency
COc1ccc(-c2ccc(C(=S)N3CCN(C(C)=O)CC3)o2)cc1,–,"inconclusive: 70.8 µM [inhibitor, single point]"
CCCN(CCC)CCCNC(=O)Cn1cc2c(n1)-c1c(oc(C(=O)N3CCCC3)c1C)CC2,–,"inconclusive: 79.4 µM [inhibitor, single point]"
COc1ccccc1N1CCN(C(CNS(=O)(=O)c2ccccc2)c2ccccc2)CC1 (stereo not drawn),–,"inconclusive: 31.6 µM [inhibitor, full curve]"
CC1(C)CC(=O)C2=C(C1)N(c1cccc(O)c1)C1=C(C2)C(=O)CC(C)(C)C1,–,"inconclusive: 89.1 µM [inhibitor, single point]"
Cc1oc(-c2cccc(Cl)c2)nc1CN1CCCC(C(=O)N2CCN(c3ccc(F)cc3)CC2)C1 (stereo not drawn),–,active: 10 µM
COc1c(Cl)cc(C(=O)N(Cc2ccc(C)o2)C2CCS(=O)(=O)C2)cc1Cl (stereo not drawn),–,"inconclusive: 79.4 µM [inhibitor, single point]"
COC(=O)c1ccccc1N=Nc1c(C)noc1C,–,"inconclusive: 56.2 µM [inhibitor, partial curve]"
COCC(C)n1c(C)cc(C(=O)CSc2cc(C)c3ccccc3n2)c1C (stereo not drawn),–,"inconclusive: 39.8 µM [inhibitor, full curve]"
O=C(Cn1c(=O)c2ccccc2n(CC(=O)Nc2ccc(F)cc2)c1=O)NCCc1ccccc1,–,"inconclusive: 89.1 µM [inhibitor, single point]"
COc1ccc(C(=O)N[C@H](C(=O)OCC(=O)NC(=O)c2cccn2C)C(C)C)cc1,–,"inconclusive: 89.1 µM [inhibitor, single point]"
CCN(CC)CCN(C(=O)c1ccc2c(c1)OCCO2)c1nc2c(Cl)cccc2s1,–,"inconclusive: 50.1 µM [inhibitor, partial curve]"
COc1cc(NC2c3ccccc3C(=O)N2Cc2ccc3c(c2)OCO3)cc(OC)c1 (stereo not drawn),–,"inconclusive: 44.7 µM [inhibitor, partial curve]"
COc1ccccc1/C=C/C(=O)Nc1ccc2c(c1)OCCO2,–,"inconclusive: 89.1 µM [inhibitor, single point]"
COc1ccc(-c2nc3c4ccccc4n(CC(=O)N4CCN(c5ccc(F)cc5)CC4)c(=O)n3n2)cc1,inactive: 14.9%,–
Cc1ccc(-n2c(C)cc3c2CCCC3=O)cc1,–,"inconclusive: 89.1 µM [inhibitor, single point]"
COc1ccc(C2(c3ccc(O)cc3O)CC(c3ccccc3Cl)NC(=S)N2)cc1 (stereo not drawn),–,active: 28.2 µM
Cn1c(=O)c(-c2ccccc2[N+](=O)[O-])c(Cl)c2ccccc21,–,"inconclusive: 89.1 µM [inhibitor, single point]"
Cn1cc(C(=O)c2ccc(Cl)cc2Cl)cc1C(=O)NN,–,"inconclusive: 70.8 µM [inhibitor, single point]"
CC1CCC2(CC1)NC(=O)N(CC(=O)Nc1ccc3c(c1)OCCO3)C2=O (stereo not drawn),inactive: -8.51%,–
Cc1cc(S(=O)(=O)N2CCN(c3ccccc3F)CC2)ccc1-n1cnnn1,–,"inconclusive: 89.1 µM [inhibitor, partial curve, poor fit]"
CC(C)(C)NC(=O)C(=O)NNC(=O)c1cccc(F)c1,–,"inconclusive: 89.1 µM [inhibitor, single point]"
